From the supplement of paper PMC3334620
In all, about 33,000 sequences were measured (“E-score (-0.5 to 0.5)”: median about -0.011, highest 2% from about 0.28 on). This is one part of the list.

Target: T1, Gcr1 (UniProt P07261)
T1 sequence: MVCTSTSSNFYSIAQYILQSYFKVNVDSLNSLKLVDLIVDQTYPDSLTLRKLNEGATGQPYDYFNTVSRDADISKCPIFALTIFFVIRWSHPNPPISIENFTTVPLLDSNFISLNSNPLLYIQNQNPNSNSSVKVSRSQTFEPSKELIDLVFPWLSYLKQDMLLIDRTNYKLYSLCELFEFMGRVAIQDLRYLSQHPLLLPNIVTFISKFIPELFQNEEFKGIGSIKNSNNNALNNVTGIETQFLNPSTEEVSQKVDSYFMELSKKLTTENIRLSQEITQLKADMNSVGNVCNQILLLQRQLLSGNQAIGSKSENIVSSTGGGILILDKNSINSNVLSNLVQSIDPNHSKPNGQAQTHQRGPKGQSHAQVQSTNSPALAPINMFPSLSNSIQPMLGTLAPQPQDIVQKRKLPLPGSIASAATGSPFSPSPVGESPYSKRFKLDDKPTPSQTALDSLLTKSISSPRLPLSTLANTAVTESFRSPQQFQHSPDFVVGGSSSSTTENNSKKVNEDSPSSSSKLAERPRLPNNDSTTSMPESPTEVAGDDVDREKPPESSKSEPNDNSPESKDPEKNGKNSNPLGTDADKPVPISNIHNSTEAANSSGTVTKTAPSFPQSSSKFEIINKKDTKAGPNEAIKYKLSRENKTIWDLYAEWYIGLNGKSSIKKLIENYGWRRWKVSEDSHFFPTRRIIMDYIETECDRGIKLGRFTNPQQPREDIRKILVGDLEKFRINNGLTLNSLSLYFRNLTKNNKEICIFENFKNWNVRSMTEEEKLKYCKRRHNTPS
Test: PBM E-score (8-mer binding enrichment) (E-score (-0.5 to 0.5)); higher = stronger / more preferred TF binding; most listed sequences are background and not binding sites
Settings: protein concentration: 100 nM; construct: GST-full length
Method in brief: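 Full-length yeast transcription factors or their DNA-binding domains, GST-tagged and expressed with PURExpress, were applied at about 100-200 nM to universal all-10-mer Agilent arrays. These arrays had been made double-stranded by primer extension on fresh or once-stripped slides. Detection used fluorescent anti-GST, normalisation used masliner, and E-scores for ungapped eight-base words pooled with reverse complements came from the Universal PBM Analysis Suite.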

Row | Sequence | PBM E-score
1 | AACGGGTA | 0.102
2 | CGGAGGAC | -0.195
3 | AAAAGTAG | 0.295
4 | ACATCCCG | -0.128
5 | AGACGCGA | 0.214
6 | CTTGCGTA | -0.00594
7 | AAACACAA | 0.0754
8 | AAGTACTG | -0.0656
9 | GTGCCCGA | 0.0418
10 | ACACGCCG | 0.199
11 | ATCTAGAG | -0.0517
12 | ATCTATGA | -0.0683
13 | AGGCCCCG | 0.0239
14 | CCTAGACA | -0.158
15 | CTCATAAA | -0.0685
16 | ATACCTGA | 0.157
17 | CGATTTGC | -0.0992
18 | CCTCGCGC | -0.19
19 | AGTGCAAT | -0.0732
20 | GGTCATGA | -0.122
21 | CGAAACTA | -0.125
22 | CGGTCCTC | -0.165

Row | Sequence | PBM E-score
23 | CAGGTGAC | -0.0797
24 | CTCGTGTA | -0.0471
25 | GCGATCGC | -0.134
26 | GGAGGTAA | -0.0182
27 | ATGTGTAG | -0.213
28 | ACCTCATA | -0.111
29 | AGAGCTCA | 0.0332
30 | CCCCCCAG | -0.232
31 | AGCCGGTA | 0.145
32 | CGCTGTGA | -0.144
33 | ACAATGAA | -0.0304
34 | GGCTTGAC | -0.176
35 | CGTACTCA | -0.0226
36 | CCGGCGCA | -0.0778
37 | CAAGACAC | 0.0836
38 | TCAAGCGA | -0.0035
39 | CGCGACGC | -0.028
40 | ATTGGTCG | 0.0402
41 | GATTACAA | 0.00708
42 | GGGACAGA | -0.0845
43 | AATCGTTG | 0.00401
44 | CCGCAACC | 0.316

Row | Sequence | PBM E-score
45 | AGAGGGAA | -0.176
46 | ACACATTC | -0.0795
47 | CACTGAGA | -0.0465
48 | AAATGAGA | 0.137
49 | AAGTCATG | 0.00488
50 | CGGCAGAG | -0.198
51 | AGTAAACT | -0.00763
52 | GCGGACGA | -0.0103
53 | ACCTGAAG | -0.0913
54 | AGCGCGTA | 0.0354
55 | AAATAGGT | 0.17
56 | CTACTAAG | 0.0321
57 | GTAGTCTA | -0.00503
58 | CGGTACTA | -0.0633
59 | TGCATACA | -0.205
60 | AGAGCATG | -0.0857
61 | AATGTTCT | -0.00075
62 | ATCCCGAA | 0.24
63 | TAAATTGA | 0.126
64 | AACCGGTC | 0.0843
65 | CTTGAAAA | 0.104
66 | AATTTCCC | 0.129

Row | Sequence | PBM E-score
67 | AGACCGGA | -0.0589
68 | ATCCCCTA | -0.0165
69 | AGATCCGA | -0.0858
70 | ATTTCCGC | 0.0282
71 | CGAGAGCA | 0.12
72 | GTTACCTA | -0.0726
73 | CAGGCTAA | -0.164
74 | CGAAAACA | -0.0974
75 | CTGCCACA | -0.0567
76 | AAGCCTGT | 0.00817
77 | CGCCGCAC | 0.0199
78 | CGACTGTC | -0.252
79 | CGCAAATC | -0.121
80 | AGCACAAG | -0.0814
81 | ACGCTCAA | -0.153
82 | CGCGCCCG | 0.0381
83 | CTGGCCAG | -0.281
84 | AACTCTAA | 0.0992
85 | GGATGATA | 0.0314
86 | GCGAGCAA | -0.0825
